In all, about 310,000 compounds went through this assay and about 2,200 (0.71%) showed an effect of 50% or more. Effects have a minus sign here. Some of the results follow.

From PMC4336329 (PLoS ONE, 2015) come the findings set out here.

For this test, the target named is human ether-à-go-go-related gene (hERG) potassium channel (human, UniProt Q12809). Kind of test: primary screen, population patch clamp on CHO cells stably expressing hERG.
Chain of human ether-à-go-go-related gene (hERG) potassium channel (Q12809 whole entry, looked up): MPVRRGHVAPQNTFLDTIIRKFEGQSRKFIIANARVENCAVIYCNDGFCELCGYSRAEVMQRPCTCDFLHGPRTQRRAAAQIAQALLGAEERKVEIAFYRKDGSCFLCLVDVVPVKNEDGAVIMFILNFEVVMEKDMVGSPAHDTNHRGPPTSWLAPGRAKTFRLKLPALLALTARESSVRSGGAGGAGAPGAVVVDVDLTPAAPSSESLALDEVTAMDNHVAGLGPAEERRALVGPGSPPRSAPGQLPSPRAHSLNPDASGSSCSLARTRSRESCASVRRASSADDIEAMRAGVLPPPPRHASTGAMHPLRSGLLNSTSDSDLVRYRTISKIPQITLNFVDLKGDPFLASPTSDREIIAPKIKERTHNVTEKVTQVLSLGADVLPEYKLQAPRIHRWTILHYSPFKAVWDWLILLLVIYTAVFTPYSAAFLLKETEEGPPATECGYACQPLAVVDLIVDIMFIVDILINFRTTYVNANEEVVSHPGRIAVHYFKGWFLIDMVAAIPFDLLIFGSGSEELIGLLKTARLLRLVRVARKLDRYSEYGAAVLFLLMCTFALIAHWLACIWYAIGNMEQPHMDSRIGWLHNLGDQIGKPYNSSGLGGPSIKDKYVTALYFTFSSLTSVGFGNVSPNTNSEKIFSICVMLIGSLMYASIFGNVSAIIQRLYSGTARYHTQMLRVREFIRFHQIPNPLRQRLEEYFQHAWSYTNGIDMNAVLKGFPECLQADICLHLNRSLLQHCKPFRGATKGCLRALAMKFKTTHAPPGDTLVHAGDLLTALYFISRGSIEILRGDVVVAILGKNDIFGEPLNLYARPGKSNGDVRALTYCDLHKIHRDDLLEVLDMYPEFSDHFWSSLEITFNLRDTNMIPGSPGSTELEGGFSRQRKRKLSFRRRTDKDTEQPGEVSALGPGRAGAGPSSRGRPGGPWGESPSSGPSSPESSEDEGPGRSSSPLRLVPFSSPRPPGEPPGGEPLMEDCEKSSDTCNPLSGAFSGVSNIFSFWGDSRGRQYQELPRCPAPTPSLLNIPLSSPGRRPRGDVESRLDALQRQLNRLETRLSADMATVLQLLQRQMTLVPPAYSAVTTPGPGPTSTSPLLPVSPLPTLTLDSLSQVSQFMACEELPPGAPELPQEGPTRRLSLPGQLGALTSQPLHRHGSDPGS
Regarding `Cn1nc(C(=O)N2CCN(S(=O)(=O)/C=C/c3ccccc3)CC2)c2ccccc2c1=O`, the “hERG current change (%, negative = inhibition) at 1uM” value was -9.45%.
The value for `CCc1ccc(OCCCCN(C)Cc2ccccc2)cc1.O=C(O)C(=O)O` was 13.4%.
In the case of `Cc1ccc(S(=O)(=O)CCC(=O)OC(C)C(=O)NC2CCCCC2C)cc1` (stereo not shown), the “hERG current change (%, negative = inhibition) at 1uM” value was 11.1%.
On to `O=C(NCc1cccs1)c1ccccc1`, for which the “hERG current change (%, negative = inhibition) at 1uM” value amounted to 7.23%.
On to `O=C1C(Cl)=C(N2CCOCC2)C(=O)N1c1cccc(Cl)c1`, for which the “hERG current change (%, negative = inhibition) at 1uM” value is 15.5%.
On to `CCN(CCCNC(=O)C1CCN(S(=O)(=O)c2cccc3nonc23)CC1)Cc1ccccc1`, for which the “hERG current change (%, negative = inhibition) at 1uM” value is given as -24.1%.
As for `COc1cc(C(=O)NCCOc2ccc(C)c(C)c2)cc(OC)c1OC`, the figure is 9.27%; as for `N#Cc1c(NC(=O)COC(=O)c2ccc(F)cc2)sc2c1CCC2`, -0.727%; as for `CCCC(=O)C1=C(N2CCCC2)CC(C)(C)C(C(=O)OC)C1=O` (stereo not shown), 10.1%.
For `CCCCCn1c(=O)[nH]c2cc(C(=O)NCCCN3CCCCC3)ccc2c1=O`, the “hERG current change (%, negative = inhibition) at 1uM” value was -4.05%.
In the case of `Nc1nc(SCc2ccccc2Cl)[nH]c(=O)c1-c1ccccc1`, the “hERG current change (%, negative = inhibition) at 1uM” value amounted to 13.8%.
Regarding `C/C(=N\Nc1ccc(S(N)(=O)=O)cc1[N+](=O)[O-])c1cccs1`, the “hERG current change (%, negative = inhibition) at 1uM” value amounted to 16%.
`c1ccc(CN2CCOCCOCCOCCOCCOCCOCC2)cc1`: the “hERG current change (%, negative = inhibition) at 1uM” value is recorded as -12.4%.
With `O=[N+]([O-])c1ccc(N2CCN(c3cccc(Cl)c3)CC2)nc1`, the “hERG current change (%, negative = inhibition) at 1uM” value amounted to 10.6%.
For the compound `Cc1csc(C(C)NC(=O)c2ccc(OC3CCN(CCc4ccccc4)CC3)cc2)n1` (stereo not shown), the “hERG current change (%, negative = inhibition) at 1uM” value is on record as -22%.
The value for `Cc1cc(-c2ccccc2)[nH]c(=O)c1C#N` was 13.4%.
On to `O=C(O)CCc1nnc(SCC(=O)Nc2ccc(Cl)c(C(F)(F)F)c2)[nH]c1=O`, for which the “hERG current change (%, negative = inhibition) at 1uM” value is recorded as 13.7%.
For `COc1ccc(NC(C)=[N+](C)CCNS(=O)(=O)c2ccc(Cl)cc2)cc1Cl.[I-]`, the “hERG current change (%, negative = inhibition) at 1uM” value is recorded as -35.5%.
As for `Cc1cc(NC(=O)c2sc3ccccc3c2O)no1`, the “hERG current change (%, negative = inhibition) at 1uM” value turned out to be 15.5%.
As for `CCCN(CCC)CCCNC(=S)Nc1ccc2nc(N3CCN(C)CC3)cc(C)c2c1`, the figure is 4.92%; as for `COc1ccc(C(=O)n2nc(-c3ccc(Cl)cc3)nc2N)cc1OC`, 8.83%; as for `COc1cc(NC(=O)c2noc(C)c2[N+](=O)[O-])c(OC)cc1Cl`, 13.9%.
Regarding `O=c1c2ccccc2oc2ccc(-c3ccc4[nH]ccc4c3)cc12`, the “hERG current change (%, negative = inhibition) at 1uM” value is listed as 4.01%.
Regarding `CC(=O)Oc1ccc(CC(C(=O)O)N2C(=O)c3ccccc3C2=O)cc1` (stereo not shown), the “hERG current change (%, negative = inhibition) at 1uM” value was 17.2%.
The value for `Cn1c(C(=O)Nc2ccc(Cl)cc2)cc2cc(Cl)ccc21` was 10.1%; that for `Cc1cc(C)c2sc(C)[n+](CCCS(=O)(=O)[O-])c2c1` was 4.6%; that for `O=c1[nH]c(=O)n(-c2cccc3ccccc23)c(O)c1/C=N/N1CCCCCC1` was 13.5%.
In the case of `Cc1cccc(OCC(=O)Nc2ccc(N3CCCC3)cc2)c1C`, the “hERG current change (%, negative = inhibition) at 1uM” value was determined as 16.6%.
For the compound `COC(=O)/C=C1\N/C(=N/c2nc(C)c3cc(OC)ccc3n2)NC1=O`, the “hERG current change (%, negative = inhibition) at 1uM” value was 12.8%.
For `O=C(Nc1ccccc1)C1=C[C@@H](C2CCCCC2)C[C@@H](OCc2ccc(CO)cc2)O1`, the “hERG current change (%, negative = inhibition) at 1uM” value was found to be 12.6%.
In the case of `Cc1ccc(CSCC(=O)N(C)CC(=O)Nc2ccc(Cl)c(Cl)c2)cc1`, the “hERG current change (%, negative = inhibition) at 1uM” value is 9.05%.
Regarding `COc1ccccc1C(=O)NCCCNc1ccc([N+](=O)[O-])cc1`, the “hERG current change (%, negative = inhibition) at 1uM” value is -15.1%.
For the compound `CC1C(=O)N2CCCc3cc(S(=O)(=O)N4CCC(C(N)=O)CC4)cc1c32` (stereo not shown), the “hERG current change (%, negative = inhibition) at 1uM” value came to 17.4%.
For `O=C(NCC1CCCO1)c1ccccc1NC(=O)c1cccc2ccccc12` (stereo not shown), the “hERG current change (%, negative = inhibition) at 1uM” value is 9.99%.
For the compound `CC(=O)Nc1nnc(SCC(=O)c2ccc3c(c2)Cc2ccccc2-3)s1`, the “hERG current change (%, negative = inhibition) at 1uM” value amounted to 14.9%.
With `CCN1C(=O)[C@H]2[C@@H](c3ccc(-c4ccc(OC)cc4)cc3)N[C@@](CC(C)C)(C(=O)OC)[C@H]2C1=O.O=C(O)C(F)(F)F`, the “hERG current change (%, negative = inhibition) at 1uM” value is 2.61%.
With `CCOC(=O)c1c(NC(=O)CCS(=O)(=O)c2ccccc2)sc2c1CCN(C(C)C)C2.Cl`, the “hERG current change (%, negative = inhibition) at 1uM” value was -64.6%.
The value for `CC(C)C12CN(C(=O)c3ccccc3[N+](=O)[O-])CC(C(C)C)(CN(C(=O)c3ccccc3[N+](=O)[O-])C1)C2=O` was 14.2%; that for `COC(=O)c1c(NC(=O)C2CCC2)sc(C(=O)N(C)C)c1C` was 22.5%.
As for `O=c1[nH]c2ccccc2c(O)c1-[n+]1ccccc1.[Cl-]`, the figure is 14.9%; as for `COc1ccc(CC(=O)NC(C)c2nnc(SCc3nc4ccccc4c(=O)[nH]3)n2C)cc1` (stereo not shown), 0.306%; as for `COc1ccc(Cl)cc1C(=O)Nc1ccc(NC(C)=O)cc1`, 19.9%.
As for `CCN1CCN(CCCNC(=O)c2ccc(CS(=O)c3ccc(Br)cc3)o2)CC1` (stereo not shown), the figure is 23.1%; as for `CCOc1ccccc1/C=N/Nc1ccc(Cl)nn1`, 12.2%; as for `CCOC(=O)c1nnn(-c2nonc2N)c1-c1cccc2ccccc12`, 14.1%.
`COc1ccc(Cc2nc3ccccc3n2C)cc1.Cl`: the “hERG current change (%, negative = inhibition) at 1uM” value was 9.27%.
As for `Cc1ccc(N2CCN(C(=O)c3ccccc3NC(=O)/C=C\C(=O)O)CC2)cc1`, the “hERG current change (%, negative = inhibition) at 1uM” value is listed as -1.41%.
Regarding `C=CCn1c(C)cc(C(=O)CN2C(=O)NC3(CCCc4ccccc43)C2=O)c1C` (stereo not shown), the “hERG current change (%, negative = inhibition) at 1uM” value is 5.43%.
`Fc1cccc(NC(=S)NNc2ccccc2)c1`: the “hERG current change (%, negative = inhibition) at 1uM” value is on record as 10.7%.
For `COc1ccc(C(=O)C2CCCN(Cc3ccon3)C2)cc1OC` (stereo not shown), the “hERG current change (%, negative = inhibition) at 1uM” value was found to be 13.7%.
Regarding `c1ccc(OCc2nnc(-c3ccccc3)o2)cc1`, the “hERG current change (%, negative = inhibition) at 1uM” value was found to be 7.89%.
With `C/C(=N\NC(=O)c1ccc2c(c1)OCCO2)c1ccccc1`, the “hERG current change (%, negative = inhibition) at 1uM” value turned out to be 13.6%.
For `CCCCN(CC)CCCNC(=O)c1csc2c1CCCCC2`, the “hERG current change (%, negative = inhibition) at 1uM” value is recorded as 39.8%.
Consider `O=C(Nc1ccc(Cl)cc1)C1CCCN(S(=O)(=O)c2cnc[nH]2)C1` (stereo not shown), for which the “hERG current change (%, negative = inhibition) at 1uM” value was found to be 15.2%.
As for `COc1cccc(-c2ccc(SCC(=O)NCCc3ccccc3)nn2)c1`, the figure is -4.82%; as for `Cc1cc2oc(=O)cc(CN(C)Cc3cccc(F)c3)c2cc1C`, 11.2%.
For the compound `COc1ccc(CS(=O)(=O)c2ncn[nH]2)cc1`, the “hERG current change (%, negative = inhibition) at 1uM” value is listed as -30.6%.
Turning to `CCOc1cc(-c2cc(-c3ccc(C)o3)nc(N)c2C#N)ccc1O`, the “hERG current change (%, negative = inhibition) at 1uM” value amounted to 5.13%.
As to `Cc1ccc(S(=O)(=O)N2CCC(C(=O)N3CCC(C(=O)NCC4CCCO4)CC3)CC2)cc1` (stereo not shown), the “hERG current change (%, negative = inhibition) at 1uM” value is given as -5.05%.
The value for `N#CCCN(C(=O)CSc1nnc(-c2ccncc2)n1C1CC1)c1ccccc1` was 8.26%; that for `Cc1ccc(S(=O)(=O)CCC(=O)NCc2ccccc2F)cc1` was 9.78%.
With `CCC1C=CC=CC[C@H](C)[C@@H](O)[C@](C)(O)C(=O)[C@@H](C)[C@H](O)[C@@H](C)C(=O)[C@H](C)[C@@H](O)[C@H](C)C=CC(=O)OC2[C@@H](C)C(CC1)OC1(CC[C@@H](C)C(C[C@H](C)O)O1)[C@@H]2C` (stereo partly shown), the “hERG current change (%, negative = inhibition) at 1uM” value is on record as 16.6%.
Turning to `O=C(Nc1ccc(Cl)cc1)c1cc2nc(C3CC3)cc(C(F)(F)F)n2n1`, the “hERG current change (%, negative = inhibition) at 1uM” value was found to be 1.77%.
For `Cc1cc(OCC(=O)Nc2ccc(S(=O)(=O)N3CCN(C)CC3)cc2)ccc1Br`, the “hERG current change (%, negative = inhibition) at 1uM” value is reported as -2.44%.
Take `COc1ccccc1N1C(=O)c2cccc3c(N(C)CCO)ccc(c23)C1=O`: the “hERG current change (%, negative = inhibition) at 1uM” value was 10%.
Regarding `COc1ccc(/C=N/NC(=O)CNC(=O)COc2ccccc2)cc1`, the “hERG current change (%, negative = inhibition) at 1uM” value amounted to 17.7%.
The value for `CC(C)NC(=O)Cn1cc(C(=O)COc2ccccc2)c2ccccc21` was 5.63%; that for `Cc1cc2c(c(=O)n1CCN(C)C)C(c1ccc(Br)cc1)C(C#N)=C(N)O2` (stereo not shown) was -19.8%; that for `O=C(Nc1nnc(-c2ccncc2)o1)c1ccccc1` was 7.47%.
Regarding `CCCCCCn1c(O)c(C=NCCCn2ccnc2)c(=O)[nH]c1=O`, the “hERG current change (%, negative = inhibition) at 1uM” value is recorded as -0.0725%.
In the case of `CCCCNc1cc(=O)n(C)c(=O)n1C`, the “hERG current change (%, negative = inhibition) at 1uM” value is reported as 3.86%.
On to `CCCCn1nc2cc(C(=O)NCc3ccccc3)ccc2c1OCC`, for which the “hERG current change (%, negative = inhibition) at 1uM” value is reported as 10.2%.
As for `CCOc1ccc(Nc2nc(Nc3ccc(O)cc3)nc(C)c2[N+](=O)[O-])cc1`, the figure is 10.5%; as for `Cc1ccc(NS(=O)(=O)c2ccc(N/N=C/c3ccccc3OCC(=O)O)c([N+](=O)[O-])c2)c(C)c1`, 9.1%.
Regarding `CC(C)(C)OC(=O)N1CCC(C(=O)N[C@@H](Cc2ccccc2)C(=O)O)CC1`, the “hERG current change (%, negative = inhibition) at 1uM” value was 14.5%.
As for `CCNC(=S)N(Cc1cc2cccc(C)c2[nH]c1=O)C1CCCC1`, the figure is 9.86%; as for `CCN(CC)CCn1c(SCC(=O)Nc2ccc3c(c2)CCC3)nc2ccccc2c1=O`, -13.1%; as for `CC(Oc1ccccc1Cl)C(=O)Nc1ccc(S(=O)(=O)Nc2nccs2)cc1` (stereo not shown), 3.88%.
In the case of `CC(C)=CC1C=C(C)C(C)C2C(=O)NNC(=O)C12` (stereo not shown), the “hERG current change (%, negative = inhibition) at 1uM” value was found to be 16.2%.
Take `COC(=O)[C@H]1Cc2c([nH]c3ccccc23)[C@H](c2ccccc2)N1`: the “hERG current change (%, negative = inhibition) at 1uM” value is on record as 7.5%.
The value for `COc1ccc(C(=O)NC(=S)NNC(=O)c2ccc(NC(=O)C(C)C)cc2)cc1` was 18.1%.
Take `CC1Cc2ccccc2N1Cc1cc(=O)c(OCC(=O)Nc2ccccc2)co1` (stereo not shown): the “hERG current change (%, negative = inhibition) at 1uM” value is reported as -5.32%.
Take `O=C(CN1C(=O)COc2ccc(S(=O)(=O)N3CCCCC3)cc21)NCc1ccccc1Cl`: the “hERG current change (%, negative = inhibition) at 1uM” value is 17.6%.
For `CCOC(Cn1c(SCc2cc(C(C)=O)ccc2OC)nc2ccccc2c1=O)OCC`, the “hERG current change (%, negative = inhibition) at 1uM” value worked out at 2.42%.
Take `CN(C)S(=O)(=O)c1cccc(NS(=O)(=O)c2ccc(Cl)s2)c1`: the “hERG current change (%, negative = inhibition) at 1uM” value came to 13.8%.
